Laboratory results published in paper PMC12136788.
Some of the results follow.

T1: UNK ZnF1-3 (human, UniProt Q9C0B0 31-174)
T1 sequence: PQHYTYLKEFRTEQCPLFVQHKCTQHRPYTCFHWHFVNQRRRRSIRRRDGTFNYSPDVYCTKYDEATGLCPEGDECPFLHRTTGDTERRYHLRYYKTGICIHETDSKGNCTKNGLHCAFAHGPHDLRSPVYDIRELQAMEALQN

B1: chr9:100410314:100410315:+_ENSG00000136937_ENST00000375147|hu_mus|motif|central (ssRNA)
RNA: GGGAGUUCUACAGUCCGACGAUCGUGCCUCUCCUGCCACCGGUCUUUUUUCAAUUUCUGAAUCUGGGCCCACAGGCAAUCGGAAUACUCUUCCUGUGGAUGUGGUUUGUCGGCAGUCCAGACUUGUAACAUGGGCACGUGAGUCAACAGAGGAUUGAGCAUCA
B2: chr9:88289291:88289292:-_ENSMUSG00000032422_ENSMUST00000140439|mus_mus|motif|central (ssRNA)
RNA: GGGAGUUCUACAGUCCGACGAUCUCCUUCUUCUCUUUCCUUUCAGAGGAGGGAUCUUCAAAAAAGUCUACAUACGGAAUGCGGAUUUUCCAGGCAGCAAGGUUUCGAGGAGUGUUAGGUGUGCUCACAGCUUCUACUGGAGAGCAACAGAGGAUUGAGCAUCA
B3: 107592600_107594026_3344_CDS_ENSG00000091136_ENST00000393561|human|control|control (ssRNA)
RNA: GGGAGUUCUACAGUCCGACGAUCUUUGUCGCACUGGCAGUCAGAGCCGUUACAGUGCUCUUGCACGGUGCCCAGGUAAUUACAGACACACUUUCGACAGUCCUGCUGGAGGGCAUCACCAUAGUAUCCAAACCGGCAGAACUGCAACAGAGGAUUGAGCAUCA
B4: chr1:150204246:150204247:-_ENSG00000143401_ENST00000314136|hu_mus|FALSE|FALSE (ssRNA)
RNA: GGGAGUUCUACAGUCCGACGAUCAAAGGUGUCAUUCAGGCCUUCGAUUUCCCCAUUGACACACAAGCAAUUAUCGAGGACUAACUCUGUCACCUCCUCCGGGGCUCUGUUCUUCAACUCCAUGUUAAUCUUCUUCUUCAUCUCCAACAGAGGAUUGAGCAUCA
B5: chr4:99997899:99997900:-_ENSG00000197894_ENST00000296412|hu_hu|FALSE|FALSE (ssRNA)
RNA: GGGAGUUCUACAGUCCGACGAUCAGGCUCCAACUUGGCAGUGUUCACAGCAGCACCAUAACCGGUUGAAAUGCCACAACCUAGAAGGCAGACUUUAUCCAAAGGUGCUAAAGGAUCUAUUUUAGCAACAGAGAUAUCAGCCACCAACAGAGGAUUGAGCAUCA
B6: chr16:57506169:57506170:-_ENSG00000125170_ENST00000340099|hu_hu|FALSE|FALSE (ssRNA)
RNA: GGGAGUUCUACAGUCCGACGAUCGCCACAACUCAAAUAGUGGUUAUUUACAAGAAGGUCUGUUCCCACAAAUCAGGACCCUAAAGUAUUAAAAAACAAAACCCAAAAAACAACAAAAAACCCCACACAACCAAAAGUUUGACGCAACAGAGGAUUGAGCAUCA

biological target: T1, UNK ZnF1-3; assay: nsRBNS (natural sequence RNA bind-n-seq); RBNS binding buffer (assumed for nsRBNS): 25 mM Tris pH 7.5, 150 mM KCl, 3 mM MgCl2, 0.01% Triton X-100, 500 ug/ml BSA, 20 U/ml SUPERase-In, 4 C; UNK is unkempt and MSI1 is Musashi-1; names of the RNAs are library labels; protein concentration not given here; high values mean tight binding

Binder	binding signal
B1	0.644 enrichment R
B2	1.19 enrichment R
B3	0.561 enrichment R
B4	0.657 enrichment R
B5	1.44 enrichment R
B6	2.51 enrichment R
